Values joined by “and” are separate entries in the source; they are usually repeats but may differ in a detail not shown here. Equal values may be shown once. Where a name gives a salt, the structure may show the parent alone. Out of some 5,800 compounds screened, about 620 (11%) showed activity.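 How the source made its calls: active = score above a cut-off or among the top three wells of a plate; in these data no inactive exceeds 0.85.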 Only a part is listed here, and it is no random draw.
Tested on: primary human hepatic stellate cells (donor 1)
Assay: scaled lipid accumulation score (0 = DMSO-like, 1 = nortriptyline-like); higher = stronger HSC inactivation (lipid re-accumulation), active = hit call of the paper
Conditions: 48 h
[1] = library stock concentration: 1 mM
[2] = library stock concentration: 10 mM
[3] = library stock concentration: 3.33 mM
[4] = library stock concentration: 6.4 mM
[5] = library stock concentration: 10.4 mM
[6] = library stock concentration: 80 uM
[7] = library stock concentration: 400 uM
[8] = library stock concentration: 2 mM

## CCCCC[C@H](O)/C=C/[C@@H]1[C@@H](C/C=C\CCCCO)[C@@H](O)C[C@H]1O [Prostaglandin F2.alpha. Alcohol]
[1]
  scaled lipid accumulation score: inactive: ≤ 0

## CNC(=C[N+](=O)[O-])NCCSCc1ccc(CN(C)C)o1 [Ranitidine hydrochloride]
  scaled lipid accumulation score: inactive: ≤ 0
[2]
  scaled lipid accumulation score: inactive: ≤ 0 and inactive: ≤ -0.006

## CNC(=C[N+](=O)[O-])NCCSCc1ccc(CN(C)C)o1 [Ranitidine]
[3]
  scaled lipid accumulation score: inactive: ≤ 0
[4]
  scaled lipid accumulation score: inactive: ≤ 0
[2]
  scaled lipid accumulation score: inactive: 0.049 and inactive: ≤ 0

## CNC(=C[N+](=O)[O-])NCCSCc1ccc(CN(C)C)o1 [Ranitidine HCl]
[4]
  scaled lipid accumulation score: inactive: ≤ 0

## C=CCc1ccc(O)c(-c2ccc(O)c(CC=C)c2)c1 [Honokiol]
[3]
  scaled lipid accumulation score: inactive: ≤ 0
[2]
  scaled lipid accumulation score: inactive: 0.295

## O=C(O)CN(CCOCCOCCN(CC(=O)O)CC(=O)O)CC(=O)O
[2]
  scaled lipid accumulation score: inactive: ≤ -0.055

## CC(C)C[C@H](NC(=O)[C@@H](O)[C@H](N)Cc1ccccc1)C(=O)O
[2]
  scaled lipid accumulation score: inactive: 0.039

## CC(C)C[C@H](NC(=O)[C@@H](O)[C@H](N)Cc1ccccc1)C(=O)O [Bestatin]
[2]
  scaled lipid accumulation score: inactive: ≤ -0.006
Library stock concentration: 16.2 mM
  scaled lipid accumulation score: inactive: 0.083

## CC(C)C[C@H](NC(=O)[C@@H](O)[C@H](N)Cc1ccccc1)C(=O)O [Bestatin (hydrochloride)]
[1]
  scaled lipid accumulation score: inactive: 0.024

## CC(C)C[C@H](NC(=O)[C@@H](O)[C@H](N)Cc1ccccc1)C(=O)O [Bestatin hydrochloride]
[2]
  scaled lipid accumulation score: inactive: 0.238

## CCN(CC)CCCC(C)Nc1c2ccc(Cl)cc2nc2ccc(OC)cc12 (stereo not drawn) [Quinacrine dihydrochloride dihydrate]
  scaled lipid accumulation score: inactive: 0.288

## CCN(CC)CCCC(C)Nc1c2ccc(Cl)cc2nc2ccc(OC)cc12 (stereo not drawn) [Quinacrine dihydrochloride]
[2]
  scaled lipid accumulation score: inactive: 0.536

## CCN(CC)CCCC(C)Nc1c2ccc(Cl)cc2nc2ccc(OC)cc12 (stereo not drawn) [Quinacrine hydrochloride]
[2]
  scaled lipid accumulation score: inactive: 0.586

## CCN(CC)CCCC(C)Nc1c2ccc(Cl)cc2nc2ccc(OC)cc12 (stereo not drawn) [Quinacrine 2HCl]
[3]
  scaled lipid accumulation score: inactive: 0.307
[2]
  scaled lipid accumulation score: inactive: 0.325

## Cc1cc2c(cc1Cl)N(C(=O)Nc1ccnc3ccccc13)CC2
[2]
  scaled lipid accumulation score: active: 1.08

## Cc1nc(C)c(Cl)c(O)c1Cl [Clopidol]
[2]
  scaled lipid accumulation score: inactive: ≤ -0.027
[5]
  scaled lipid accumulation score: inactive: ≤ 0 and inactive: 0.014

## CCCCCCCCCCCCCCCC[N+](C)(C)CCN(Cc1ccc(OC)cc1)c1ncccn1 [Thonzonium bromide]
  scaled lipid accumulation score: inactive: 0.318

## O=C(O)P(=O)(O)O [Foscarnet Sodium]
[3]
  scaled lipid accumulation score: inactive: ≤ 0
[2]
  scaled lipid accumulation score: inactive: ≤ 0

## O=C(O)P(=O)(O)O [Foscarnet sodium]
[2]
  scaled lipid accumulation score: inactive: ≤ 0
[5]
  scaled lipid accumulation score: inactive: ≤ 0

## CC1=C(C)C(=O)C(CCCCC#CCCCC#CCO)=C(C)C1=O
[2]
  scaled lipid accumulation score: inactive: 0.105
Library stock concentration: 15.3 mM
  scaled lipid accumulation score: inactive: ≤ -0.012

## CC1=C(C)C(=O)C(CCCCC#CCCCC#CCO)=C(C)C1=O [Docebenone]
Library stock concentration: 6.1 mM
  scaled lipid accumulation score: inactive: ≤ -0.006

## Nc1ccc(C(=O)Nc2cccc(-c3nc(N4CCOCC4)c4oc5ncccc5c4n3)c2)cn1
[2]
  scaled lipid accumulation score: active: 0.915

## C#C[C@]1(O)CC[C@H]2[C@@H]3CCc4cc(OC)ccc4[C@H]3CC[C@@]21C [Mestranol]
[3]
  scaled lipid accumulation score: inactive: 0.005
[4]
  scaled lipid accumulation score: inactive: 0.127
[2]
  scaled lipid accumulation score: inactive: 0.511

## C#C[C@]1(O)CC[C@H]2[C@@H]3CCc4cc(OC)ccc4[C@H]3CC[C@@]21C
[2]
  scaled lipid accumulation score: inactive: 0.814

## C#C[C@]1(O)CC[C@H]2[C@@H]3CCc4cc(OC)ccc4[C@H]3CC[C@@]21C [Ethynylestradiol 3-methyl ether]
  scaled lipid accumulation score: inactive: ≤ 0

## CC(C)NCC(O)c1ccc(NS(C)(=O)=O)cc1 (stereo not drawn) [(?)-Sotalol hydrochloride] [listing 1 of 2 here]
[2]
  scaled lipid accumulation score: inactive: ≤ 0

## CC(C)NCC(O)c1ccc(NS(C)(=O)=O)cc1 (stereo not drawn) [Sotalol HCl]
Library stock concentration: 7.3 mM
  scaled lipid accumulation score: inactive: ≤ -0.006

## CC(C)NCC(O)c1ccc(NS(C)(=O)=O)cc1 (stereo not drawn) [Sotalol]
[3]
  scaled lipid accumulation score: inactive: ≤ 0
[2]
  scaled lipid accumulation score: inactive: ≤ 0

## CC(C)NCC(O)c1ccc(NS(C)(=O)=O)cc1 (stereo not drawn) [Sotalol hydrochloride]
  scaled lipid accumulation score: inactive: ≤ 0
[2]
  scaled lipid accumulation score: inactive: ≤ 0

## CC(C)NCC(O)c1ccc(NS(C)(=O)=O)cc1 (stereo not drawn) [(?)-Sotalol hydrochloride] [listing 2 of 2 here]
[2]
  scaled lipid accumulation score: inactive: ≤ 0

## COc1ccc2cccc(CCNC(C)=O)c2c1 [Agomelatine]
[1]
  scaled lipid accumulation score: inactive: ≤ 0
[3]
  scaled lipid accumulation score: inactive: ≤ 0
[2]
  scaled lipid accumulation score: inactive: ≤ 0

## CN(C)CCCCSC(=N)N
[2]
  scaled lipid accumulation score: inactive: ≤ 0

## C1=N/C2=N/c3ccc(OCCN4CCCC4)c(c3)COC/C=C/COCc3cccc(c3)C(=C1)N2 [Pacritinib (SB1518)]
[3]
  scaled lipid accumulation score: inactive: 0.536
[2]
  scaled lipid accumulation score: inactive: 0.41

## C1=N/C2=N/c3ccc(OCCN4CCCC4)c(c3)COC/C=C/COCc3cccc(c3)C(=C1)N2 [Pacritinib]
[6]
  scaled lipid accumulation score: inactive: 0.184
[7]
  scaled lipid accumulation score: inactive: 0.686
[8]
  scaled lipid accumulation score: inactive: 0.473

## COc1cc(C=O)ccc1O [Vanillin]
[3]
  scaled lipid accumulation score: inactive: ≤ 0
[2]
  scaled lipid accumulation score: inactive: ≤ 0

## CC(=O)N1CCN(c2ccc(OCC3COC(Cn4ccnc4)(c4ccc(Cl)cc4Cl)O3)cc2)CC1 (stereo not drawn)
[2]
  scaled lipid accumulation score: inactive: 0.048

## CC(=O)N1CCN(c2ccc(OCC3COC(Cn4ccnc4)(c4ccc(Cl)cc4Cl)O3)cc2)CC1 (stereo not drawn) [Ketoconazole]
  scaled lipid accumulation score: inactive: 0.131
[3]
  scaled lipid accumulation score: inactive: 0.086

## CN(CCOc1ccc(NS(C)(=O)=O)cc1)CCc1ccc(NS(C)(=O)=O)cc1 [Dofetilide]
[3]
  scaled lipid accumulation score: inactive: ≤ 0
Library stock concentration: 4.5 mM
  scaled lipid accumulation score: inactive: ≤ -0.006
[2]
  scaled lipid accumulation score: inactive: 0.026 and inactive: 0.09

## CN(CCOc1ccc(NS(C)(=O)=O)cc1)CCc1ccc(NS(C)(=O)=O)cc1
[2]
  scaled lipid accumulation score: inactive: ≤ 0

## CNCC(O)c1ccc(O)c(O)c1 (racemic) [(+/-)-Epinephrine hydrochloride]
[2]
  scaled lipid accumulation score: inactive: ≤ 0

## Cc1cccc(CCN2CCC(C(=O)c3ccc(NS(C)(=O)=O)cc3)CC2)n1 [E-4031 dihydrochloride]
[2]
  scaled lipid accumulation score: inactive: ≤ 0

## Cc1cccc(CCN2CCC(C(=O)c3ccc(NS(C)(=O)=O)cc3)CC2)n1
Library stock concentration: 9.9 mM
  scaled lipid accumulation score: inactive: 0.011

## CCN(CC)CCn1c(=O)c(Cc2ccc(OC)cc2)nc2ccccc21 [Caroverine hydrochloride]
[2]
  scaled lipid accumulation score: inactive: 0.098

## Nc1nc2ccc(Cl)cc2n2c(-c3ccccc3)nnc12
[2]
  scaled lipid accumulation score: inactive: 0.049

## n(c1N)c(N(CC)C(C)C)c(nc1C(=O)\N=C(\N)/N)Cl [5-(N-Ethyl-N-isopropyl)amiloride]
[2]
  scaled lipid accumulation score: active: 1.07

## NS(=O)(=O)c1ccc(C(=O)O)cc1
[2]
  scaled lipid accumulation score: inactive: ≤ 0

## COc1cc2ncnc(Nc3ccc(Cl)cc3F)c2cc1OC
[3]
  scaled lipid accumulation score: inactive: ≤ 0
[2]
  scaled lipid accumulation score: inactive: ≤ 0 and inactive: ≤ -0.001

## CCCCCCCCCCCCC/C=C/[C@@H](O)[C@H](CO)N(C)C [N,N-Dimethylsphingosine]
[1]
  scaled lipid accumulation score: inactive: 0.185

## Oc1ccc(Nc2nc(-c3ccc(Cl)cc3)cs2)cc1 [Sphingosine Kinase Inhibitor 2]
[1]
  scaled lipid accumulation score: inactive: 0.058

## Oc1ccc(Nc2nc(-c3ccc(Cl)cc3)cs2)cc1
[6]
  scaled lipid accumulation score: inactive: ≤ -0.001
[7]
  scaled lipid accumulation score: inactive: ≤ -0.001
[8]
  scaled lipid accumulation score: inactive: ≤ -0.001
[3]
  scaled lipid accumulation score: inactive: ≤ -0.009
[2]
  scaled lipid accumulation score: inactive: 0.141 and inactive: 0.011

## NC(=O)c1c(NC(=O)C2CC2)sc2c1CCCC2
[6]
  scaled lipid accumulation score: inactive: ≤ -0.001
[7]
  scaled lipid accumulation score: inactive: ≤ -0.001
[8]
  scaled lipid accumulation score: inactive: ≤ -0.001
[2]
  scaled lipid accumulation score: inactive: 0.118

## CNc1cc(NS(=O)(=O)c2ccc(N)cc2)nc(NC)n1 [Ro 04-6790 dihydrochloride]
[2]
  scaled lipid accumulation score: inactive: ≤ 0

## CCCCC(C)CC(O)/C=C/C1C(O)CC(O)C1CCCCCCC(=O)O (stereo not drawn) [17,20-dimethyl Prostaglandin F1.alpha.]
[1]
  scaled lipid accumulation score: inactive: ≤ 0

## N#Cc1ccc2[nH]c(O)c(-c3ccc(CN4CCOCC4)cn3)c2c1
[3]
  scaled lipid accumulation score: inactive: 0.477
[2]
  scaled lipid accumulation score: inactive: 0.769

## O=C(Nc1ccc(Cl)cc1)c1ccccc1NCc1ccncc1 [VEGF Receptor Tyrosine Kinase Inhibitor II]
[3]
  scaled lipid accumulation score: inactive: ≤ 0

## C#C[C@]1(OC(C)=O)CC[C@H]2[C@@H]3CCC4=C[C@@H](OC(C)=O)CC[C@@H]4[C@H]3CC[C@@]21C [Ethynodiol diacetate]
  scaled lipid accumulation score: inactive: ≤ 0
[3]
  scaled lipid accumulation score: inactive: ≤ 0
Library stock concentration: 5.2 mM
  scaled lipid accumulation score: inactive: ≤ 0
[2]
  scaled lipid accumulation score: inactive: ≤ -0.001

## CC(C)[C@H](C(=O)Nc1ccc(C(=O)NO)cc1)c1ccccc1
[1]
  scaled lipid accumulation score: inactive: 0.3
[3]
  scaled lipid accumulation score: inactive: 0.53
[2]
  scaled lipid accumulation score: inactive: 0.523

## N[C@H]1CCN(O)C1=O
[2]
  scaled lipid accumulation score: inactive: ≤ 0

## COc1ccccc1OCCNCC(O)COc1cccc2[nH]c3ccccc3c12 (stereo not drawn) [Carvedilol]
[2]
  scaled lipid accumulation score: active: 1.1

## COc1ccc([C@@H]2CNC(=O)C2)cc1OC1CCCC1 [(R)-(-)-Rolipram]
[2]
  scaled lipid accumulation score: inactive: ≤ -0.006

## Nc1ccc(S(=O)(=O)Nc2ncccn2)cc1 [Sulfadiazine]
  scaled lipid accumulation score: inactive: ≤ 0
[3]
  scaled lipid accumulation score: inactive: ≤ 0
Library stock concentration: 8 mM
  scaled lipid accumulation score: inactive: 0.029 and inactive: ≤ 0
[2]
  scaled lipid accumulation score: inactive: ≤ 0 and inactive: 0.006

## CCCC(C)NC(=O)c1ccc(Cl)c(Cl)c1 (stereo not drawn)
[3]
  scaled lipid accumulation score: inactive: ≤ -0.009
[2]
  scaled lipid accumulation score: inactive: ≤ 0

## C=CCc1cc(OC)c(O)c(C(=O)NCCO)c1 [Alibendol]
[3]
  scaled lipid accumulation score: inactive: 0.026
[2]
  scaled lipid accumulation score: inactive: ≤ 0

## CO[C@@]1(NC(=O)C(C(=O)O)c2ccc(O)cc2)C(=O)N2C(C(=O)O)=C(CSc3nnnn3C)CO[C@@H]21 (stereo partly drawn) [Moxalactam disodium salt]
  scaled lipid accumulation score: inactive: ≤ 0

## CO[C@@]1(NC(=O)C(C(=O)O)c2ccc(O)cc2)C(=O)N2C(C(=O)O)=C(CSc3nnnn3C)CO[C@@H]21 (stereo partly drawn) [Moxalactam disodium]
Library stock concentration: 3.5 mM
  scaled lipid accumulation score: inactive: ≤ -0.001
[2]
  scaled lipid accumulation score: inactive: ≤ 0
